Laboratory results from the supplement of paper PMC3334620.
In all, about 33,000 sequences were measured (“E-score (-0.5 to 0.5)”: median about -0.04, highest 2% from about 0.36 on). This is one part of the list.

Target: T1, Hmlalpha2 (UniProt P0CY09)
T1 sequence: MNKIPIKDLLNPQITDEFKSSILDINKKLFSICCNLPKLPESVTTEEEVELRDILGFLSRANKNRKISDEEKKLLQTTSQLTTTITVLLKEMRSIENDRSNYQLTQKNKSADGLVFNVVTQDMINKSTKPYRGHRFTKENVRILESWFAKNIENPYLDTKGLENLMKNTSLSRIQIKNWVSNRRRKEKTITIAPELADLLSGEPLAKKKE
Experiment: PBM E-score (8-mer binding enrichment) (E-score (-0.5 to 0.5)); higher = stronger / more preferred TF binding; most listed sequences are background and not binding sites
Conditions: protein concentration: 200 nM; construct: GST-full length
Method: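 Universal 'all 10-mer' protein binding microarrays (Agilent AMADID 015681) probed with GST-tagged S. cerevisiae TFs (full-length or DBD) made by in vitro transcription/translation (PURExpress), about 100-200 nM. Bound TF was detected with fluorescent anti-GST. Each ungapped 8-mer (which stands for itself and its reverse complement) is scored by the PBM enrichment score (E-score), a modified Wilcoxon-Mann-Whitney statistic from -0.5 to +0.5, computed with the Universal PBM Analysis Suite. Scale: above 0.35 generally sequence-specific binding.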

Sequence	PBM E-score
AATAAGAG	-0.201
AGGAGTAC	-0.0058
ACCAATGA	-0.0683
CACCATTC	-0.112
AATTTTAT	0.191
ACCATGCT	0.0386
CAAGTTTC	0.0425
CTAGCTGC	-0.142
CCGCCCTC	-0.231
GCACTAGC	-0.195
AGTGCCAT	-0.0775
GACCAATA	0.0238
GGCTGCTA	-0.0801
CCGTCGGA	-0.122
AGAGCAGC	-0.132
TCCATTCA	-0.0303
CAACTCGG	-0.273
ACCCACAA	0.0627
GACTGACC	-0.192
AGCGGTCG	-0.31
ATGTTCTA	0.11
AAACTTGC	0.082
ACCTCCCA	-0.221
ATACGTCA	0.197
ACCAGCCA	-0.0964

Sequence	PBM E-score
ATCGGCCA	-0.243
CACGTACC	0.0169
CGTGTCAC	0.309
GACGACGC	-0.0038
AAGGCATT	-0.0698
CCTTATTA	0.0487
CAGGACTC	-0.099
AAAGGTGT	-0.00838
AATTGACT	0.0311
ACCCACTC	-0.0487
CCCCAGAG	-0.309
CGCTAAGA	-0.0842
ATGCATAG	0.0358
GCGTAAGC	0.183
CCGTGTAG	0.452
CAGCTATA	-0.0091
CGAATCAA	0.162
CGCGTGCA	-0.0161
CTCAGTCC	-0.198
CAACCATA	-0.0287
CCTTGCCA	-0.119
ATACTAAG	0.0862
GAATTCCC	-0.114
CCGAGAAA	-0.0488
ATGCTGCC	-0.0923

Sequence	PBM E-score
CTGTAGTC	-0.0729
ACTAGCAG	-0.011
AGCTCTAC	0.0713
AGGGTCAA	-0.0604
CCAGCAGC	-0.245
ATAAGTTA	0.239
GGTAATAC	0.173
GTCGTAAC	0.175
AGCCCTTA	-0.0743
ACCGATAA	0.0677
GAAGCGCA	-0.198
GCCTCTAC	-0.161
ATAAAAGC	-0.0672
TTACCAAA	0.102
AGTGGTTC	-0.0849
GATGAGGC	-0.301
ACGTCAGT	-0.158
GACGTATA	0.17
CACGCCAA	0.0728
CACGTCGG	0.0248
CAATCGGA	-0.0181
CCTGTACG	0.0613
AGTGTCGG	-0.13
CAGGCAGG	-0.0222
AATCGTCA	0.0586

Sequence	PBM E-score
GCCCGCGC	-0.178
ACCGTAGG	-0.178
CACCCCTG	-0.137
CCTATCCG	-0.315
CGGCGACG	-0.128
CGCGTTAA	0.427
AATCGTGA	-0.00694
AGAAAAGG	-0.105
ATAAACGG	-0.0499
GATGATAC	-0.00858
TACATACA	0.443
GCTAATAA	0.0127
ACGTTTTG	0.134
CGCGGTTA	0.109
CCGGTGAG	-0.226
GTCTAAAA	0.0507
GGCGAGCA	-0.257
AAAGGTGA	-0.0525
GGATTGCA	0.00103
GGGAGATA	-0.216
CGAACACA	0.209
AGAGAATC	-0.114
CCGATCGC	-0.0743
AGTATGAT	0.0934
TCATCGAA	-0.0231

Sequence	PBM E-score
GAGACGGA	-0.095
TACCGTGA	-0.0306
CTTACATC	0.283
ACTGTCAA	-0.0749
ATGGTGCA	0.0104
CTTGAGTC	-0.141
ATAGAGCG	-0.2
ACTTCTCT	0.0893
CTGACTTA	0.0614
AATTGCCC	-0.175
AGCAGGCT	-0.142
CCAGAACG	0.0593
ATCGCCCG	-0.188
ACCGGTCA	-0.099
GTACGCAC	0.0802
GAGTCCAA	0.095
CACTGGTA	-0.0231
CCATCGTC	-0.277
AATAGAAT	0.0964
GGTACACC	-0.0541
ATCACTAG	-0.116
TGACGGCA	-0.167
CAACAGAC	0.0475
CTAGTCCC	-0.227
AATGTACT	0.186

Sequence	PBM E-score
ACGGCTCG	-0.0132
GTCAACAC	0.358
CAGAAAAC	0.177
CAGCTGTA	-0.117
TATTCGAA	-0.114
CACCGGTA	-0.143
ATCGGTGA	0.0663
ATTACCGA	0.0482
AGTCCACG	-0.172
CACATTCG	0.135
AGATTATC	-0.206
AATGCTCA	-0.0253
CTCCCTAA	-0.0306
CCGTTATC	-0.145
AGCGAAGG	-0.149
ACAATCAA	0.206
GACGGAGC	-0.322
CCCTAGCG	-0.313
AAATGATG	0.117
AACGACAA	0.224
CCGCTTTA	0.151
ATAGATTA	0.151
GCCCGAAA	-0.0843
GCCGTCCA	-0.114
CATCGCAG	-0.129

Sequence	PBM E-score
GGGTGTTA	0.195
AGACGCTG	-0.0863
CTTTCCGA	-0.189
ATGACCGC	-0.164
CGCGAACA	0.116
AATTGCTC	-0.247
ACTGATCA	0.0649
ATGCAACG	0.139
AGGTATGA	0.0876
ACAACGTC	0.197
GGCTTCCA	-0.356
ATGATAAC	0.246
GATGAGCC	-0.213
GGATTCCA	0.0857
CGCCCCTC	-0.159
CACGGGTC	0.00809
CAGATCTA	0.0478
CACCATGA	-0.188
ATCACATA	0.252
GACGGTAC	-0.0778
CTTTGGGC	-0.181
CAACGCTA	-0.0373
CGCAACCA	-0.0283
ACGAATGG	0.0117
AATGCGCT	-0.0192

Sequence	PBM E-score
CATTGCAG	0.074
CGACGGTA	-0.0674
GATTTCTA	-0.037
CCAGAGAC	-0.237
AGTTGACC	-0.0988
CCCAGCAA	-0.0162
GCTAACCC	-0.0929
ATAGCTAG	-0.108
CGAGAGGA	-0.0167
GTCAAGGA	0.0281
AAACCTAA	0.0553
ACAGGAAG	0.0597
GAAGAACA	0.298
TCATCACA	0.0876
GAAGATTA	0.0807
AACGAATT	0.022
CCAACAAA	0.224
TAGGTGCA	-0.193
ACACAGCT	0.298
GTCGATAA	0.0673
AGATGGAC	-0.156
ACTGAGCA	-0.0094
AAAGAAGT	0.123
ATGGGGGA	-0.321
CAACTTGA	0.125

Sequence	PBM E-score
CAGGTGCC	-0.262
GACTCATC	-0.216
ACGCACGG	0.0872
ATTCGGTA	0.181
AGCCAAAG	-0.133
CCGTGTGA	0.292
CGTGCAGA	0.0241
TCTCGGAA	-0.0555
CATTCGAG	0.058
AATTAAGG	-0.0679
AAATGTGC	0.0196
TGCGACCA	-0.117
GGCTCCGA	-0.166
CAGGGAAC	-0.105
AAGAACCA	-0.0365
AATTCAGT	-0.0546
AATACGCT	0.234
CAGATGGC	-0.00972
ACATGAAA	0.302
